In the supplement of paper PMC8728848:
This is one part of the list.

Columns and labels:
Experiment in all cases: glycan array binding signal (z-score within array); higher = stronger binding
Conditions in all cases: glycan notation: IUPAC condensed, linker removed
[1] = biological target: Neu5Ac(a2-6)Gal(b1-4)GlcNAc(b1-2)Man(a1-3)[Neu5Ac(a2-3)Gal(b1-4)GlcNAc(b1-2)Man(a1-6)]Man(b1-4)GlcNAc(b1-4)GlcNAc
Outline: (§1)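 Glycan array binding is given as a within-array Z-score, which can be read as non-binding when negative. The arrays, 3228 of them, came from the Consortium for Functional Glycomics database and were retained only where the protein sequence was available. Z-scores were averaged across arrays of the same protein sequence at different concentrations or buffers and across linkers.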

[2] = biological target: Neu5Ac(a2-6)Gal(b1-4)GlcNAc(b1-2)Man(a1-3)[Neu5Ac(a2-6)Gal(b1-4)GlcNAc(b1-2)Man(a1-6)]Man(b1-4)GlcNAc(b1-4)GlcNAc
Outline: as §1

[3] = biological target: Neu5Ac(a2-6)Gal(b1-4)GlcNAc(b1-2)Man(a1-3)[Neu5Ac(a2-6)Gal(b1-4)GlcNAc(b1-2)Man(a1-6)]Man(b1-4)GlcNAc(b1-4)[Fuc(a1-6)]GlcNAc
Outline: as §1

[4] = biological target: Neu5Ac(a2-6)Gal(b1-4)GlcNAc(b1-2)Man(a1-6)Man(b1-4)GlcNAc(b1-4)GlcNAc
Outline: as §1

[5] = biological target: Neu5Ac(a2-6)Gal(b1-4)GlcNAc(b1-2)Man(a1-6)[Gal(b1-4)GlcNAc(b1-2)Man(a1-3)]Man(b1-4)GlcNAc(b1-4)GlcNAc
Outline: as §1

[6] = biological target: Neu5Ac(a2-6)Gal(b1-4)GlcNAc(b1-2)Man(a1-6)[GlcNAc(b1-2)Man(a1-3)]Man(b1-4)GlcNAc(b1-4)GlcNAc
Outline: as §1

[7] = biological target: Neu5Ac(a2-6)Gal(b1-4)GlcNAc(b1-2)Man(a1-6)[Man(a1-3)]Man(b1-4)GlcNAc(b1-4)GlcNAc
Outline: as §1

[8] = biological target: Neu5Ac(a2-6)Gal(b1-4)GlcNAc(b1-2)[Neu5Ac(a2-6)Gal(b1-4)GlcNAc(b1-4)]Man(a1-3)[GlcNAc(b1-4)][Neu5Ac(a2-6)Gal(b1-4)GlcNAc(b1-2)[Neu5Ac(a2-6)Gal(b1-4)GlcNAc(b1-6)]Man(a1-6)]Man(b1-4)GlcNAc(b1-4)GlcNAc
Outline: as §1

[9] = biological target: Neu5Ac(a2-6)Gal(b1-4)GlcNAc(b1-2)[Neu5Ac(a2-6)Gal(b1-4)GlcNAc(b1-4)]Man(a1-3)[GlcNAc(b1-4)][Neu5Ac(a2-6)Gal(b1-4)GlcNAc(b1-4)Man(a1-6)]Man(b1-4)GlcNAc(b1-4)GlcNAc
Outline: as §1

[10] = biological target: Neu5Ac(a2-6)Gal(b1-4)GlcNAc(b1-2)[Neu5Ac(a2-6)Gal(b1-4)GlcNAc(b1-6)]Man(a1-6)[Neu5Ac(a2-6)Gal(b1-4)GlcNAc(b1-2)Man(a1-3)][GlcNAc(b1-4)]Man(b1-4)GlcNAc(b1-4)GlcNAc
Outline: as §1

[11] = biological target: Neu5Ac(a2-6)Gal(b1-4)GlcNAc(b1-3)Gal(b1-3)GlcNAc
Outline: as §1

[12] = biological target: Neu5Ac(a2-6)Gal(b1-4)GlcNAc(b1-3)Gal(b1-4)GlcNAc
Outline: as §1

[13] = biological target: Neu5Ac(a2-6)Gal(b1-4)GlcNAc(b1-3)Gal(b1-4)GlcNAc(b1-2)Man(a1-3)[Neu5Ac(a2-6)Gal(b1-4)GlcNAc(b1-3)Gal(b1-4)GlcNAc(b1-2)Man(a1-6)]GalNAc
Outline: as §1

[14] = biological target: Neu5Ac(a2-6)Gal(b1-4)GlcNAc(b1-3)Gal(b1-4)GlcNAc(b1-3)Gal(b1-4)GlcNAc
Outline: as §1

[15] = biological target: Neu5Ac(a2-6)Gal(b1-4)GlcNAc(b1-3)Gal(b1-4)GlcNAc(b1-3)Gal(b1-4)GlcNAc(b1-2)Man(a1-3)[Neu5Ac(a2-6)Gal(b1-4)GlcNAc(b1-3)Gal(b1-4)GlcNAc(b1-3)Gal(b1-4)GlcNAc(b1-2)Man(a1-6)]GalNAc
Outline: as §1

[16] = biological target: Neu5Ac(a2-6)Gal(b1-4)GlcNAc(b1-3)Gal(b1-4)GlcNAc(b1-3)GalNAc
Outline: as §1

[17] = biological target: Neu5Ac(a2-6)Gal(b1-4)GlcNAc(b1-3)Gal(b1-4)GlcNAc(b1-3)[Neu5Ac(a2-6)Gal(b1-4)GlcNAc(b1-3)Gal(b1-4)GlcNAc(b1-6)]GalNAc
Outline: as §1

[18] = biological target: Neu5Ac(a2-6)Gal(b1-4)GlcNAc(b1-3)Gal(b1-4)GlcNAc(b1-6)[Gal(b1-3)]GalNAc
Outline: as §1

[19] = biological target: Neu5Ac(a2-6)Gal(b1-4)GlcNAc(b1-3)Gal(b1-4)[Fuc(a1-3)]GlcNAc(b1-3)Gal(b1-4)[Fuc(a1-3)]GlcNAc
Outline: as §1

[20] = biological target: Neu5Ac(a2-6)Gal(b1-4)GlcNAc(b1-3)GalNAc
Outline: as §1

[21] = biological target: Neu5Ac(a2-6)Gal(b1-4)GlcNAc(b1-3)[Neu5Ac(a2-6)Gal(b1-4)GlcNAc(b1-6)]GalNAc
Outline: as §1

[22] = biological target: Neu5Ac(a2-6)Gal(b1-4)GlcNAc(b1-6)GalNAc
Outline: as §1

[23] = biological target: Neu5Ac(a2-6)Gal(b1-4)GlcNAc(b1-6)[Gal(b1-3)GlcNAc(b1-3)]Gal(b1-4)Glc
Outline: as §1

[24] = biological target: Neu5Ac(a2-6)Gal(b1-4)GlcNAc(b1-6)[Gal(b1-3)]GalNAc
Outline: as §1

[25] = biological target: Neu5Ac(a2-6)Gal(b1-4)GlcNAc6S
Outline: as §1

[26] = biological target: Neu5Ac(a2-6)GalNAc
Outline: as §1

[27] = biological target: Neu5Ac(a2-6)GalNAc(b1-4)GlcNAc
Outline: as §1

[28] = biological target: Neu5Ac(a2-6)GalNAc(b1-4)GlcNAc6S
Outline: as §1

[29] = biological target: Neu5Ac(a2-6)GlcNAc(b1-4)GlcNAc
Outline: as §1

[30] = biological target: Neu5Ac(a2-6)GlcNAc(b1-4)GlcNAc(b1-4)GlcNAc
Outline: as §1

B1: Cohesin-hMARCO (Homo sapiens) (protein)
chain: LDDLDAVRIKVDTVNAKPGDTVRIPVRFSGIPSKGIANCDFVYSYDPNVLEIIEIEPGDIIVDPNPDKSFDTAVYPDRKIIVFLFAEDSGTGAYAITKDGVFATIVAKVKEGAPNGLSVIKFVEVGGFANNDLVEQKTQFFDGGANVGDTTEPATPTTPVTTPTTTDDLDAASVRIVGSSNRGRAEVYYSGTWGTICDDEWQNSDAIVFCRMLGYSKGRALYKVGAGTGQIWLDNVQCRGTESTLWSCTKNSWGHHDCSHEEDAGVECSVHHHHHH
glycan array binding signal (z-score) [1]: -0.554 | glycan array binding signal (z-score) [2]: -0.385 | glycan array binding signal (z-score) [3]: 0.131 | glycan array binding signal (z-score) [4]: -0.581 | glycan array binding signal (z-score) [5]: -0.561 | glycan array binding signal (z-score) [6]: -0.356 | glycan array binding signal (z-score) [7]: -0.445 | glycan array binding signal (z-score) [8]: -0.067 | glycan array binding signal (z-score) [9]: -0.104 | glycan array binding signal (z-score) [10]: -0.413 | glycan array binding signal (z-score) [11]: -0.475 | glycan array binding signal (z-score) [12]: -0.161 | glycan array binding signal (z-score) [13]: -0.37 | glycan array binding signal (z-score) [14]: -0.582 | glycan array binding signal (z-score) [15]: -0.27 | glycan array binding signal (z-score) [16]: -0.2 | glycan array binding signal (z-score) [17]: -0.49 | glycan array binding signal (z-score) [18]: -0.395 | glycan array binding signal (z-score) [19]: -0.435 | glycan array binding signal (z-score) [20]: -0.019 | glycan array binding signal (z-score) [21]: -0.384 | glycan array binding signal (z-score) [22]: -0.495 | glycan array binding signal (z-score) [23]: -0.058 | glycan array binding signal (z-score) [24]: -0.023 | glycan array binding signal (z-score) [25]: -0.173 | glycan array binding signal (z-score) [26]: 0.214 | glycan array binding signal (z-score) [27]: -0.223 | glycan array binding signal (z-score) [28]: -0.503 | glycan array binding signal (z-score) [29]: -0.302 | glycan array binding signal (z-score) [30]: -0.396
